According to the supplement of paper PMC4967469:

Experiments:
Assay in all cases: Viability of human cancer cell lines after 72 h of drug (GDSC screen)
QL-XI-92 = compound: C=CC(=O)Nc1cc(NC(=O)c2ccc(C)c(NC(=O)c3ccno3)c2)cc(C(F)(F)F)c1 [QL-XI-92]; conditions: top dose 10.24 µM; top dose inferred
Method: (§1)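 Human cancer cell lines in 384-well plates, medium with 10% serum, drug for 72 h over a 256-fold dose range (nine 2-fold or five 4-fold steps up to the top dose). Adherent lines were fixed and stained with the nucleic acid dye Syto60, suspension lines read with resazurin; signal relative to control wells, capped at 0 and 100%. One two-parameter sigmoid per drug and line, fitted in a mixed model over all curves with the slope shared within a line.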

Phenformin = compound: N=C(N)NC(=N)NCCc1ccccc1 [Phenformin]; conditions: top dose 4000 µM; top dose inferred
Method: as §1

Vinorelbine = compound: CCC1=C[C@@H]2CN(C1)Cc1c([nH]c3ccccc13)[C@@](C(=O)OC)(c1cc3c(cc1OC)N(C)[C@H]1[C@@](O)(C(=O)OC)[C@H](OC(C)=O)[C@]4(CC)C=CCN5CC[C@]31[C@@H]54)C2 [Vinorelbine]; conditions: top dose 0.064 µM; top dose inferred
Method: as §1

S-Trityl-L-cysteine = compound: N[C@@H](CSC(c1ccccc1)(c1ccccc1)c1ccccc1)C(=O)O [S-Trityl-L-cysteine]; conditions: top dose 5.12 µM; top dose inferred
Method: as §1

WHI-P97 = compound: COc1cc2ncnc(Nc3cc(Br)c(O)c(Br)c3)c2cc1OC [WHI-P97]; conditions: top dose 10.24 µM; top dose inferred
Method: as §1

NU-7441 = compound: O=c1cc(N2CCOCC2)oc2c(-c3cccc4c3sc3ccccc34)cccc12 [NU-7441]; conditions: top dose 2 µM; top dose inferred
Method: as §1

AG-014699 = compound: CNCc1ccc(-c2[nH]c3cc(F)cc4c3c2CCNC4=O)cc1 [AG-014699]; conditions: top dose 5 µM; top dose inferred
Method: as §1

EHT 1864 = compound: O=c1cc(CN2CCOCC2)occ1OCCCCCSc1ccnc2cc(C(F)(F)F)ccc12 [EHT 1864]; conditions: top dose 10 µM; top dose inferred
Method: as §1

XL-184 = compound: COc1cc2nccc(Oc3ccc(NC(=O)C4(C(=O)Nc5ccc(F)cc5)CC4)cc3)c2cc1OC [XL-184]; conditions: top dose 5.12 µM; top dose inferred
Method: as §1

Gefitinib = compound: COc1cc2ncnc(Nc3ccc(F)c(Cl)c3)c2cc1OCCCN1CCOCC1 [Gefitinib]; conditions: top dose 0.5 µM
Method: as §1

Row | Cell Line | AUC (QL-XI-92) | IC50 (QL-XI-92) [µM] | AUC (Phenformin) | IC50 (Phenformin) [µM] | AUC (Vinorelbine) | IC50 (Vinorelbine) [µM] | AUC (S-Trityl-L-cysteine) | IC50 (S-Trityl-L-cysteine) [µM] | AUC (WHI-P97) | IC50 (WHI-P97) [µM] | AUC (NU-7441) | IC50 (NU-7441) [µM] | AUC (AG-014699) | IC50 (AG-014699) [µM] | AUC (EHT 1864) | IC50 (EHT 1864) [µM] | AUC (XL-184) | IC50 (XL-184) [µM] | AUC (Gefitinib) | IC50 (Gefitinib) [µM]
1 | MZ7-mel (melanoma, adherent) | 0.985 | > 10.2 | 0.358 | 99.4 | 0.623 | 0.00881 | 0.819 | 3.04 | 0.973 | > 10.2 | 0.962 | > 2 | 0.987 | > 5 | 0.947 | > 10 | 0.936 | > 5.12 |  | 
2 | NB1 (neuroblastoma, semi-adherent) | 0.934 | > 10.2 | 0.8 | 2160 | 0.747 | 0.0223 | 0.746 | 1.77 | 0.972 | > 10.2 | 0.938 | > 2 | 0.974 | > 5 | 0.877 | > 10 | 0.937 | > 5.12 |  | 
3 | NB7 (neuroblastoma, adherent) | 0.897 | > 10.2 | 0.867 | 3900 | 0.787 | 0.0293 | 0.976 | > 5.12 | 0.969 | > 10.2 | 0.986 | > 2 | 0.942 | > 5 | 0.862 | 9.22 | 0.86 | 4.61 |  | 
4 | NCI-H1355 (lung adenocarcinoma, adherent) | 0.967 | > 10.2 | 0.802 | 3110 | 0.478 | 0.0034 | 0.657 | 1.06 | 0.97 | > 10.2 | 0.894 | > 2 | 0.959 | > 5 | 0.902 | > 10 | 0.978 | > 5.12 |  | 
5 | NCI-H1694 (small cell lung carcinoma, suspension) | 0.809 | 5.31 | 0.621 | 536 | 0.846 | 0.0462 | 0.896 | > 5.12 | 0.972 | > 10.2 | 0.979 | > 2 | 0.989 | > 5 | 0.988 | > 10 | 0.983 | > 5.12 |  | 
6 | NCI-H1963 (small cell lung carcinoma, suspension) |  |  | 0.704 | 860 | 0.719 | 0.0151 | 0.701 | 1.08 | 0.956 | > 10.2 |  |  | 0.991 | > 5 | 0.991 | > 10 | 0.989 | > 5.12 | 0.991 | > 0.5
7 | NCI-H1975 (lung adenocarcinoma, adherent) | 0.952 | > 10.2 | 0.621 | 569 | 0.541 | 0.00527 | 0.794 | 2.75 | 0.976 | > 10.2 | 0.968 | > 2 | 0.977 | > 5 | 0.934 | > 10 | 0.954 | > 5.12 |  | 
8 | PL-21 (acute myeloid leukaemia, suspension) | 0.939 | > 10.2 | 0.616 | 552 | 0.734 | 0.0211 | 0.65 | 0.9 | 0.957 | > 10.2 |  |  | 0.979 | > 5 |  |  | 0.888 | > 5.12 | 0.982 | > 0.5
9 | RKO (large intestine, adherent) | 0.927 | > 10.2 | 0.632 | 562 | 0.303 | 0.00117 | 0.664 | 0.879 | 0.987 | > 10.2 | 0.974 | > 2 | 0.975 | > 5 | 0.96 | > 10 | 0.904 | > 5.12 |  | 
10 | RL95-2 (endometrium, adherent) | 0.987 | > 10.2 | 0.839 | 2690 | 0.613 | 0.00813 | 0.59 | 0.563 | 0.869 | 9.31 |  |  |  |  |  |  | 0.876 | 5.01 | 0.912 | > 0.5
11 | RS4-11 (leukaemia, suspension) | 0.733 | 2.74 | 0.459 | 195 | 0.566 | 0.00594 | 0.615 | 0.642 | 0.931 | > 10.2 | 0.88 | 1.76 | 0.958 | > 5 | 0.942 | > 10 | 0.812 | 2.46 |  | 
12 | SCC-15 (head and neck, adherent) | 0.97 | > 10.2 | 0.693 | 1060 | 0.652 | 0.0122 | 0.926 | > 5.12 | 0.826 | 9.36 | 0.96 | > 2 | 0.89 | > 5 | 0.946 | > 10 | 0.846 | > 5.12 |  | 
13 | SNU-C1 (large intestine, suspension) | 0.978 | > 10.2 | 0.307 | 55 | 0.834 | > 0.064 | 0.898 | > 5.12 | 0.979 | > 10.2 | 0.898 | > 2 | 0.976 | > 5 | 0.902 | > 10 | 0.979 | > 5.12 |  | 
14 | SNU-C2B (large intestine, adherent) | 0.977 | > 10.2 | 0.476 | 210 |  |  | 0.713 | 1.57 | 0.933 | > 10.2 | 0.969 | > 2 | 0.972 | > 5 |  |  | 0.964 | > 5.12 |  | 
15 | U-87-MG (glioma, adherent) | 0.917 | > 10.2 | 0.839 | 3430 | 0.782 | 0.0319 | 0.981 | > 5.12 | 0.983 | > 10.2 | 0.97 | > 2 | 0.984 | > 5 | 0.921 | > 10 |  |  |  | 

IC50 is the fitted dose that halves viability relative to control wells, and lower means more sensitive; where the fit passes the top or lowest dose, that dose stands as a limit. The AUC spans the tested range (256-fold, ending at the top dose) of the same fit; values near 1 show little effect. For some of these results: A top dose marked as inferred comes from the curve model; the source does not state it.
